# Paper PMC4936896, “Primate TRIM5 proteins form hexagonal nets on HIV-1 capsids” (eLife, 2016)
# Target: the molecule itself
# Assay: SEC; final gel filtration step, HiLoad 16/600 Superdex 200 in 20 mM CHES, 100 nM ZnCl2, 1 mM TCEP, pH 10.0, 4°C; oligomer judged from retention time
protein,measurement,value
"human TRIM5α (Homo sapiens) (natural protein, also called TRIM5αhu; wild type TRIM5αhu) not shown",stoichiometry N,2
